Experimental data taken from the RNAGym collection of RNA variant scans (doi:10.1073/pnas.2313332121).
This sample is rich in variants without activity.

B1: TPR 5TU (parent)
chain: GGAUCUUCUCGAUCUAACAAAAAAGACAAAUCUGCCACAAAGCUUGAGAGCAUCUUCGGAUGCAGAGGCGGCAGCCUUCGGUGGCGCGAUAGCGCCAACGUUCUCAACUAUGACACGCAAAACGCGUGCUCCGUUGAAUGGAGUUUAUCAUG

Variants of: B1
Assay: polymerase ribozyme fitness, log enrichment relative to wild type (log ratio); higher = more active; in vitro selection for triplet polymerase activity
Outline: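 Mutant libraries of each subunit of a heterodimeric triplet polymerase ribozyme were built by PCR and transcribed. Each library went through one round of in vitro selection in triplicate: annealing with biotinylated primer, partner subunit and triplets, frozen incubation at −7 °C, gel excision of extended constructs, streptavidin-bead capture and RT-PCR. Input and output libraries were Illumina-sequenced; only genotypes with ≥10 input reads and ≥1 read per output were kept. Fitness is log2(genotype enrichment/wild-type enrichment), using inverse-variance-weighted replicate averages.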

Point of comparison: GGAUCUUUUCGAUCUAACCAAAAAGACAAAUCGGCCACAAAGCUUGAGAGCAACAUCGGAUGCAGAGGCGGCAGCCUUCGGUGGCGCGAUAGCGCGAACGUUCUCAAUUAUGACACGCAAAACGCGUGCUCCGUUGAAUGGAGUUUAUCAUG [C8U A19C U33G U53A U55A C96G C108U], “polymerase ribozyme fitness (log ratio)” value -3.8. Against it:
- GGAUCUUUUCGAUCUAUCAAAAAAGACAAAUCUGCCACAAAGCUUGAGAGCAUCUUCGGAUGCAGAGGCGGCAGCCUUCGGUGGCGCGAUAGCGCCAACGUUCUCAACUAUGACACGCAAAACGCGUGCUCCGUUGAAUGGUGUUUAUUAUG [C8U A17U A142U C149U] — lower, ≤ -4.2
- GGAUCUUUUCGAUCUAACAAAAAAGUCAAAUCUGCCACAAAGCUUGAGAGCAUCUUCGGAUGCAGAGGCGGCAGCCUUCGGUCGCGCGAUAGCGCCAACGUUCUCAACUAUGACACGCAAAACGCGUGCUCCAUUGAAUGGAGUUUAUCAUG [C8U A26U G83C G133A] — lower, ≤ -4.2
- GGAUCUUUUCGAUCUAACAACAAAGACUAAUCUGCCACAAAGCUUGAGAGCAACUUCGGAUGCAGAGGCGGCAGCCGUCGGUGGCGCUAUAGCGCCAACGUUCUCAACUAUGACACGCAAAACGCGUGCUCCGUUGAAUGGAGUGUAUCCUG [C8U A21C A28U U53A U77G G88U U145G A150C] — lower, ≤ -4.2
- GGAUCUUUUCGAUCUAUCAAAAAAGACAAAUCUGCCACAAAGCUUGAGAGCAUCACCGGAUGCAGAGGCGGCAGCCUUCGGUGGCGCGAUGGGGCCAACGUUCUCAACUAUGACACGCAAAACGCGUGCUCCGUUGAAUGGAGCUUAUCAUG [C8U A17U U55A U56C A91G C93G U144C] — lower, ≤ -4.2
- GGAUCUUUUCGAUCUAACAAAAAAGACCAAUCUGCCACAAAGCUUGAGAGCAUUUUCGGAUGCAGAGGCGGCAGCCUUCGGUGGCGAGAUAGCGCCAACGUUCUCGACUAUGACACGCAAAACGCGUGCUCCGUUGAAUGGAGUUUAUCAUG [C8U A28C C54U C87A A106G] — lower, ≤ -4.2
- GGAUCUUUUCGAUCUAACAAAAAGGACAAAUCUGCCACAAAACUUGAGAGCAUCUUCGGAUGCAGACGCGUCAGCCUUCGAUGGCGCGAUAGCGCCAACGUUCUCAACUAUGACACGCAAAACGCGUGCUCCGUUGAAUGGAGUUUAUCAUG [C8U A24G G42A G67C G71U G81A] — lower, ≤ -4.2
- GGAUCUUUUCGAUCUAACAAAACAGAUAAAUCUGCCCCAAAGCUUGAGAGCAUCAUCGGAUGCAGAGGCGGAAACCUUCGGUGGCGCGAUAGCACCAACGUGCUCAACUAUGACACGCAAAACGCGUGCUCCGUUGAAUGGAGUUUAUCAUG [C8U A23C C27U A37C U55A C72A G74A G94A U102G] — lower, ≤ -4.2
- GGAUCUUUUCGAUCUAACAAAAAUGACAAAUCUGCCACAAAGCUUGAGAGCAUCGUCGGAUGCAGAGGUGGCAUCCUUCGGUGGCGAGAUAGCGCCAACGUUCUCAACUAUGACACGCAAAACGCGUGCUCCGUUGAUUGGAGUUUAUCAUG [C8U A24U U55G C69U G74U C87A A138U] — lower, ≤ -4.2
- GGAUCUUUUCGAUCUAACCAAAAAGACAAAUCUGGCCCAAAGCUUGAGAGCAUCUUCGGACGCAGAGGCGGCAGCGUUCGGUGGCGCGAUAGAGCCAACGUUCUCAACUAUGACACGCAAAACGCGUGCUCCGUUGAAUGGAGUUUAUCAUG [C8U A19C C35G A37C U61C C76G C93A] — lower, ≤ -4.2
- GGAUCUUUUCGAUCUAACAGAAAAGACAAAUCUGCCACAAAGCUUGAGAGCAUCUUCGGAUGCAGAGGCGGCAGCCUUCGGUGGCGCGAUAGCGCCAACGUUCUCAACUAUGACACGCAAAACGCGUGCUCCGUUGAAUGGAGUUUAUCAUG [C8U A20G] — within 0.2 log units, -3.94
- GGAUCUUUUCGAUCUAACAAAUAAGACAAAUCUCCCACAAAGCUUGAGAGCAUCUUCGGAUGCAGAGAUGGCAGCCUUCGGUGGCGAGAUAGCGCCAACGUUCUCAACUAUGACACGCAAAACGCGUGCUCCGUUGAAUGGAGUUUAUCAUG [C8U A22U G34C G68A C69U C87A] — lower, ≤ -4.2
- GGAUCUUUUCGAUCUAACAAAAAAGACUAAUCUGCGACAAAGCUUGAGAGCAUCUUCCGAUGCAGAGACGGCAGCCUUCGGUGGCGCGAUAGCGCCAACGUGCUCAACAAUGACACUCAAAACGCGUGCUCUGUUGAAUGGAGUUUAACAUG [C8U A28U C36G G58C G68A U102G U109A G117U C132U U148A] — lower, ≤ -4.2
- GGAUCUUUUCGAUCUAACAAAAAAGACGAAUCUGCCACAAAGCUUGCGAGCAUCUUCGGAUGCAGAGGCGGGAGCCUUCGGAAGGGCGAUAGCGCCAACGUUCUCAACUAUGACACGCAAAACGCGUGCUCCGUUGAAUGGAGUUUAUCAUG [C8U A28G A47C C72G U82A G83A C85G] — lower, ≤ -4.2
- GGAUCUUUUCGAUCUAACAAAAAAGACAAUUUUGCCACAAAGCUUGAGAGCAUCUUCGGAUGCGGAGGCGGCAGCAUUCGGUGGCGCGAUAGCGCCGACGUUCUCAUUUGUGACAAGCAAAACGCGUGCUCCGUUGAAUGGAGUUUAUCAUG [C8U A30U C32U A64G C76A A97G A107U C108U A110G C116A] — lower, -4.12
- GGAUCUUUUCGAUCUAACAAAAACGACAAAUCUGCUACAAAGCUUGAAAGCAUCUUCGGAUGCAGAGGCGGCAGCCUUCGGUGGCGCGAUAGCGGCAACGUUCUUAACUAUGACACGCAAAACGCGUGCUCCGUUGAAUGGAGUAUAUCAUG [C8U A24C C36U G48A C95G C105U U145A] — lower, ≤ -4.2
- GGAUCUUUUCGAUCUAACAAAGAAGUCAAAUCUGCCACAAAGCUUGAGAGCAUCUACGGAUGCAGAGGCGGCAGCCUUCGGUGGCGCGAUAUCGCCAACGUUCUCAACUAUGACAUGCAAAACGCGUGCUCCGUUGAAUGGAGUUUAUCAUG [C8U A22G A26U U56A G92U C116U] — lower, ≤ -4.2
- GGAUCUUUUCGAUCUAACAAUAAAGACAAAUCUGCCACAAAGCUUGAGAGCAUCUUCGGAUGCAGAGGCGGCAGCCUUCGGUGGCGCGAUAACGCCAACGUUCUCAACUAUGACACGCAAAACGCGUGCUCCGUUGAAUGGAGUUUAUCAUG [C8U A21U G92A] — lower, ≤ -4.2
- GGAUCUUUUCGAUCUAACAAGAAAGACAAAUCUGCCACAACGCUUGAGAACAUCUUCGGAUGCACAGGCGGCAGCCUUCGGUGGCGCAAUAGCGCCAACGUUCUCAACUAUGACACGCAAAACGCGUGCUCCGUUGAAUGGAGUUUAUCAUG [C8U A21G A41C G50A G65C G88A] — lower, ≤ -4.2
